Measured values as given in PubChem BioAssay AID1454 (National Center for Advancing Translational Sciences (NCATS), 2008).
The campaign covered roughly 130,000 compounds. About 550 (0.42%) were called active. This list was built around the results that the source calls inconclusive (neither active nor inactive); the mix of calls is not that of the screen. Calls follow the shape of the dose curve; as a rule, active = well fitted inhibition curve with a large enough effect; inconclusive = small, poorly fitted or top-dose-only effect, or effect the other way; inactive = flat fitted curve, though single readings scatter. No potency is given beside an inconclusive call; the fits are too rough.

assay: qHTS Assay for Inhibitors of the ERK Signaling Pathway using a Homogeneous Screening Assay; Stimulation with EGF; conditions: HEK293-V1b, EGF-stimulated phospho-ERK AlphaScreen; also: nearly all actives have a fitted effect of over 55% in size
Outline: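 Cell line HEK293 (stable V1b), low serum overnight. Pretreatment: compound 30 min, 37C. EGF 25 nM, 5 min. Detection: SureFire AlphaScreen, 5 h RT. AC50 via standard Hill equation.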
Potency is read from the fitted curve at half-maximal effect; tags tell the direction and shape of the fitted curve.

| Structure (SMILES) | Potency |
| --- | --- |
| N#Cc1cccc(NC(=O)N2CC[C@@]3(CCCN(C(=O)Oc4ccccc4)C3)C2)c1 | inconclusive [inhibitor, partial curve, poor fit] |
| O=C(O)c1ccc2c(c1)C1C(Cl)C(Sc3ccccc3[N+](=O)[O-])CC1C(c1cccc([N+](=O)[O-])c1)N2 (stereo not drawn) | inactive |
| CCCCCCCCCCCCCCCC[N+](C)(C)C | inconclusive [inhibitor, single point] |
| O=[N+]([O-])c1cccc(CN2CCN(Cc3ccc(Cl)cc3)CC2)c1 | inconclusive [inhibitor, single point] |
| C=C(C)CN1CC[C@]23c4c5ccc(O)c4O[C@H]2c2[nH]c4ccccc4c2C[C@@]3(O)C1C5 | active: 15.8 µM |
| CC[C@@]1(O)CC(O)c2c(cc3c(c2O)C(=O)c2c(O)ccc(O)c2C3=O)C1C(=O)OC (stereo partly drawn) | inconclusive [inhibitor, partial curve] |
| CC(C)(C)C(=O)c1cn(Cc2ccccc2)c2ccccc12 | inconclusive [activator, single point] |
| Cc1nc(-c2ccc(-c3ccc(C(=O)N4CCc5cc6c(cc54)C4(CCN(C)CC4)CO6)cc3)c(C)c2)no1 | inconclusive [inhibitor, single point] |
| CC(C)c1ccc(N=Cc2c(O)n(C3CC3)c(=S)[nH]c2=O)cc1 | inconclusive [inhibitor, single point] |
| O=C(O)c1cc(O)c(O)c(O)c1 | inconclusive [inhibitor, single point] |
| COC(=O)c1ccc(NC(=O)CSc2nc3ccc(N4C(=O)C5C6C=CC(C6)C5C4=O)cc3s2)cc1 (stereo not drawn) | inconclusive [inhibitor, partial curve] |
| CCCCCCCCCOc1ccc2[nH]cc(CCN)c2c1 | inconclusive [inhibitor, single point] |
| CCCCCCCCCCCCCCCCOC[C@@H](O)COP(=O)([O-])OCC[N+](C)(C)C | inactive |
| O=C1NO[C@H]2[C@@H]1CN[C@@H]2C(=O)O | inactive |
| Cc1noc(C)c1C(=O)N1CCC2(CCCN(CC(C)C)C2)CC1 | inactive |
| CC1CC[C@@]2(OC1)O[C@@H]1[C@@H](O)[C@H]3C4CC[C@H]5C[C@@H](O[C@@H]6O[C@H](CO)[C@H](O[C@@H]7O[C@H](CO)[C@@H](O)[C@H](O[C@@H]8OC[C@@H](O)[C@H](O)[C@H]8O)[C@H]7O[C@@H]7O[C@H](CO)[C@@H](O)[C@H](O[C@@H]8O[C@H](CO)[C@@H](O)[C@H](O)[C@H]8O)[C@H]7O)[C@H](O)[C@H]6O)[C@H](O)C[C@]5(C)C4CC[C@]3(C)[C@H]1[C@@H]2C (stereo partly drawn) | inactive |
| CC1O[C@@H](O[C@@H]2C(O)C[C@H](O[C@@H]3C(O)C[C@@H](OC4CC[C@@]5(C)C6CC[C@]7(C)C(C8=CC(=O)OC8)CC[C@@]7(O)C6CC[C@@H]5C4)OC3C)OC2C)CC(O)[C@H]1O (stereo partly drawn) | inactive |
| CCCn1c(=O)c2[nH]c(C3CCCC3)nc2n(CCCOC(=O)c2ccc(S(=O)(=O)F)cc2)c1=O | inconclusive [inhibitor, single point] |
| C[C@@]12CC[C@H]3[C@@H](CCC4=CC(=O)CC[C@]43C)[C@H]1CC[C@H]2C(=O)CO | inactive |

| Structure (SMILES) | Potency |
| --- | --- |
| O=P(Nc1cccnc1)(Oc1ccccc1Cl)Oc1ccccc1Cl | inconclusive [inhibitor, single point] |
| CC1=CC2/C=C(\C)CCC(O)C(O)/C=C/C(=O)C23C(=O)NC(CC(C)C)C3C1C (stereo not drawn) | inconclusive [inhibitor, single point] |
| CC(=O)N1N=C2C3CCN(CC3)C2C1c1cccc2ccccc12 (stereo not drawn) | inconclusive [inhibitor, partial curve] |
| Cn1c(O)c(/C=N/NC(=O)c2ccncc2)c(=O)[nH]c1=S | inconclusive [inhibitor, partial curve, poor fit] |
| C[C@@H]1O[C@H](C[N+](C)(C)C)CS1 | inactive |
| O=C(CCCN1CCC2(CC1)C(=O)NCN2c1ccccc1)c1ccc(F)cc1 | inconclusive [inhibitor, single point] |
| C1CCC2S[C@H]3CCCCC3NC2C1 (stereo partly drawn) | inconclusive [inhibitor, single point] |
| CN(C(=O)Cc1ccc(Cl)c(Cl)c1)[C@H](CN1CCCC1)c1cccc(N=C=S)c1 | inactive |
| O=C1/C(=C/c2ccc([N+](=O)[O-])cc2)N2CCC1CC2 | inconclusive [inhibitor, partial curve] |
| C[C@]12CC[C@H]3[C@@H](CCC4=CC(=O)CC[C@@]43C)[C@@H]1CC[C@@H]2C(=O)CO | inconclusive [inhibitor, single point] |
| COc1cc2c(cc1OC)[C@@H]1C(=O)c3ccc4c(c3O[C@@H]1CO2)C[C@H](C(C)C)O4 | inconclusive [inhibitor, single point] |
| C=CCc1cc(OC)c2c(c1OC)OCO2 | inactive |
| COc1ccc2c(c1OC)C(=O)O[C@H]2[C@H]1c2cc3c(cc2CCN1C)OCO3 | inactive |
| CN(C)c1ccc(/C=C2\CCCN=C2c2cccnc2)cc1 | inconclusive [inhibitor, single point] |
| CCCCN1C(=O)/C(=C/C=C/c2ccco2)C(=O)NC1=S | inactive |
| CCOC(=O)C1(CCc2ccccc2)CCN(Cc2cccc3cnccc23)CC1 | inconclusive [inhibitor, partial curve] |
| CC(=O)OC1CC[C@@]2(C)C3CC[C@]4(C)C(=O)CCC4C3CC[C@H]2C1 (stereo partly drawn) | inconclusive [inhibitor, single point] |
| COc1cccc(CN2CCCC(C(=O)c3ccccc3SC)C2)c1O (stereo not drawn) | inconclusive [inhibitor, partial curve] |
| C[C@H]1CC[C@@]2(NC1)O[C@@H]1C[C@H]3[C@@H]4CC[C@@H]5C[C@@H](O)CC[C@@]5(C)[C@@H]4CC[C@]3(C)[C@@H]1[C@@H]2C | inactive |
